This note sets out measurements from the supplement of paper PMC10369915.

First the molecules themselves.
B1: NTRK2_Y702_T704I (peptide)
chain: MSRDVYSIDYY
B2: NUP98_Y1664_G1669V_YF (peptide)
chain: IINENYDFLKV
B3: OAS3_Y376_S381R (peptide)
chain: SLNAVYPRAGR
B4: OAT_Y158 (peptide)
chain: ARKWGYTVKGI
B5: NUP98_Y1664 (peptide)
chain: IINENYDYLKG
B6: NTRK2_Y702_R699G (peptide)
chain: MSGDVYSTDYY
B7: NTRK2_Y707_Y706C (peptide)
chain: YSTDCYRVGGH
B8: OAT_Y50 (peptide)
chain: EREYKYGAHNY
B9: NTRK2_Y706 (peptide)
chain: VYSTDYYRVGG
B10: NUP107_Y296_YF (peptide)
chain: FAKSVYWENTL
B11: NUP98_Y1664_YF (peptide)
chain: IINENYDFLKG
B12: NUBPL_Y109_D105Y (peptide)
chain: LYVDVYGPSVP
B13: NTRK2_Y702_T704I_YF (peptide)
chain: MSRDVYSIDFF
B14: NUP107_Y296_E298D_YF (peptide)
chain: FAKSVYWDNTL
B15: OAT_Y55_N54K (peptide)
chain: YGAHKYHPLPV
B16: NTRK2_Y706_Y706C_YF (peptide)
chain: VFSTDCFRVGG
B17: NTRK2_Y707 (peptide)
chain: YSTDYYRVGGH
B18: OAS1_Y362 (peptide)
chain: DDPRRYQKYGY
B19: NUBPL_Y109_D105Y_YF (peptide)
chain: LFVDVYGPSVP

The list shows a part of the results. No stated cut-off is given here; in the data, active = 3.2 or more and inactive = the rest. Most of these values are background signal.
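Further: displayed peptides selected on beads carrying the immobilized SH2 domain, with library peptides lacking any tyrosine serving as negative controls.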

The target in the first experiment is SHP2 C-SH2 domain E139D. The experiment in a line: enrichment score (SH2-bound / input frequency) (ratio); bacterial display of known human phosphotyrosine sites (pTyr-Var adds point mutants) read by sequencing; higher = stronger binding; tyrosines were phosphorylated by kinases first. The settings on record: peptide library: pTyr-Var.
As for B1, the enrichment score is inactive: 0.666.

In the case of B2, the enrichment score is inactive: 0.927.

Regarding B3, the enrichment score was inactive: 0.269.

Take B4: the enrichment score is inactive: 0.524.

For the molecule B5, the enrichment score is inactive: 0.844.

Take B6: the enrichment score was inactive: 0.609.

For B7, the enrichment score was inactive: 0.685.

Consider B8, for which the enrichment score is inactive: 0.564.

As for B9, the enrichment score is inactive: 0.77.

As for B10, the enrichment score is inactive: 1.06.

B11: the enrichment score is inactive: 0.906.

On to B12, for which the enrichment score is inactive: 1.27.

B13: the enrichment score was inactive: 0.941.

As to B14, the enrichment score was inactive: 0.681.

For the molecule B15, the enrichment score is inactive: 3.08.

As to B16, the enrichment score was inactive: 1.06.

Take B17: the enrichment score was inactive: 0.704.

On to B18, for which the enrichment score is inactive: 0.681.

As for B19, the enrichment score is inactive: 1.5.

The target of the next experiment is SHP2 C-SH2 domain wild-type. The description is as above. The note with it: peptide library: pTyr-Var.
Consider B1, for which the enrichment score is inactive: 0.578.

Consider B2, for which the enrichment score was inactive: 0.846.

Consider B3, for which the enrichment score is inactive: 0.293.

For the molecule B4, the enrichment score is inactive: 0.443.

Take B5: the enrichment score is inactive: 0.649.

Turning to B6, the enrichment score is inactive: 0.576.

For B7, the enrichment score is inactive: 0.734.

With B8, the enrichment score is inactive: 0.712.

For the molecule B9, the enrichment score is inactive: 0.8.

As for B10, the enrichment score is inactive: 0.807.

As for B11, the enrichment score was inactive: 0.817.

Consider B12, for which the enrichment score was inactive: 1.14.

With B13, the enrichment score was inactive: 0.896.

With B14, the enrichment score is inactive: 0.898.

For the molecule B15, the enrichment score is inactive: 2.55.

In the case of B16, the enrichment score is inactive: 0.739.

Turning to B17, the enrichment score is inactive: 0.742.

B18: the enrichment score was inactive: 0.673.

In the case of B19, the enrichment score is inactive: 1.34.

Another experiment addresses SHP2 N-SH2 domain L43F. The description is as above. The note with it: peptide library: pTyr-Var.
With B1, the enrichment score is inactive: 0.653.

Regarding B2, the enrichment score is inactive: 0.823.

Regarding B3, the enrichment score was inactive: 0.336.

For B4, the enrichment score is inactive: 0.488.

Consider B5, for which the enrichment score was inactive: 0.76.

Consider B6, for which the enrichment score is inactive: 0.776.

With B7, the enrichment score is inactive: 0.69.

With B8, the enrichment score is inactive: 0.347.

Turning to B9, the enrichment score was inactive: 0.553.

Regarding B10, the enrichment score is inactive: 0.805.

Regarding B11, the enrichment score is inactive: 1.04.

In the case of B12, the enrichment score was inactive: 1.39.

In the case of B13, the enrichment score is inactive: 1.03.

In the case of B14, the enrichment score was inactive: 0.936.

B15: the enrichment score was inactive: 2.76.

For the molecule B16, the enrichment score is inactive: 0.988.

B17: the enrichment score is inactive: 0.8.

For the molecule B18, the enrichment score is inactive: 0.665.

Turning to B19, the enrichment score was inactive: 1.33.

The target in a further experiment is SHP2 N-SH2 domain T42A. Described as above. The note with it: peptide library: pTyr-Var.
In the case of B1, the enrichment score was inactive: 0.553.

Turning to B2, the enrichment score is inactive: 0.997.

Turning to B3, the enrichment score was inactive: 0.257.

As for B4, the enrichment score was inactive: 0.533.

With B5, the enrichment score is inactive: 0.772.

Regarding B6, the enrichment score is inactive: 0.673.

In the case of B7, the enrichment score is inactive: 0.664.

As for B8, the enrichment score is inactive: 0.587.

Consider B9, for which the enrichment score is inactive: 0.662.

Regarding B10, the enrichment score was inactive: 2.02.

For the molecule B11, the enrichment score was inactive: 0.866.

As for B12, the enrichment score was inactive: 1.23.

As to B13, the enrichment score is inactive: 0.85.

In the case of B14, the enrichment score was inactive: 1.28.

B15: the enrichment score was inactive: 2.14.

In the case of B16, the enrichment score was inactive: 1.08.

With B17, the enrichment score is inactive: 0.795.

Take B18: the enrichment score is inactive: 0.646.

Regarding B19, the enrichment score is inactive: 1.09.

In a further experiment the target is SHP2 N-SH2 domain T52S. The description is as above. The settings on record: peptide library: pTyr-Var.
B1: the enrichment score was inactive: 0.857.

On to B2, for which the enrichment score is inactive: 0.897.

Regarding B3, the enrichment score is inactive: 0.289.

With B4, the enrichment score is inactive: 0.626.

Regarding B5, the enrichment score is inactive: 0.874.

As for B6, the enrichment score was inactive: 0.548.

For the molecule B7, the enrichment score was inactive: 0.572.

Consider B8, for which the enrichment score is inactive: 0.482.

As to B9, the enrichment score is inactive: 0.621.

For the molecule B10, the enrichment score was inactive: 0.944.

B11: the enrichment score is inactive: 0.753.

For B12, the enrichment score was inactive: 1.41.

For B13, the enrichment score is inactive: 0.95.

With B14, the enrichment score was inactive: 0.851.

Regarding B15, the enrichment score is inactive: 2.28.

Take B16: the enrichment score is inactive: 0.969.

On to B17, for which the enrichment score was inactive: 0.889.

As for B18, the enrichment score is inactive: 0.756.

Take B19: the enrichment score was inactive: 1.36.

In a further experiment the target is SHP2 N-SH2 domain wild-type. The description is as above. The note with it: peptide library: pTyr-Var.
In the case of B1, the enrichment score is inactive: 0.719.

Turning to B2, the enrichment score was inactive: 0.956.

On to B3, for which the enrichment score was inactive: 0.286.

B4: the enrichment score was inactive: 0.446.

As to B5, the enrichment score is inactive: 0.9.

Turning to B6, the enrichment score is inactive: 0.732.

With B7, the enrichment score is inactive: 0.759.

Regarding B8, the enrichment score is inactive: 0.525.

On to B9, for which the enrichment score is inactive: 0.67.

Regarding B10, the enrichment score is inactive: 1.15.

Turning to B11, the enrichment score is inactive: 1.19.

For the molecule B12, the enrichment score was inactive: 1.12.

In the case of B13, the enrichment score is inactive: 1.03.

Regarding B14, the enrichment score was inactive: 0.647.

With B15, the enrichment score was active: 3.4.

For B16, the enrichment score was inactive: 0.927.

In the case of B17, the enrichment score is inactive: 0.971.

Take B18: the enrichment score is inactive: 0.928.

Take B19: the enrichment score is inactive: 1.21.
